Target: T1, mouse LEP-R extracellular domain (mLEP-RECD) (mouse, UniProt P48356 22-839)
T1 sequence (looked up): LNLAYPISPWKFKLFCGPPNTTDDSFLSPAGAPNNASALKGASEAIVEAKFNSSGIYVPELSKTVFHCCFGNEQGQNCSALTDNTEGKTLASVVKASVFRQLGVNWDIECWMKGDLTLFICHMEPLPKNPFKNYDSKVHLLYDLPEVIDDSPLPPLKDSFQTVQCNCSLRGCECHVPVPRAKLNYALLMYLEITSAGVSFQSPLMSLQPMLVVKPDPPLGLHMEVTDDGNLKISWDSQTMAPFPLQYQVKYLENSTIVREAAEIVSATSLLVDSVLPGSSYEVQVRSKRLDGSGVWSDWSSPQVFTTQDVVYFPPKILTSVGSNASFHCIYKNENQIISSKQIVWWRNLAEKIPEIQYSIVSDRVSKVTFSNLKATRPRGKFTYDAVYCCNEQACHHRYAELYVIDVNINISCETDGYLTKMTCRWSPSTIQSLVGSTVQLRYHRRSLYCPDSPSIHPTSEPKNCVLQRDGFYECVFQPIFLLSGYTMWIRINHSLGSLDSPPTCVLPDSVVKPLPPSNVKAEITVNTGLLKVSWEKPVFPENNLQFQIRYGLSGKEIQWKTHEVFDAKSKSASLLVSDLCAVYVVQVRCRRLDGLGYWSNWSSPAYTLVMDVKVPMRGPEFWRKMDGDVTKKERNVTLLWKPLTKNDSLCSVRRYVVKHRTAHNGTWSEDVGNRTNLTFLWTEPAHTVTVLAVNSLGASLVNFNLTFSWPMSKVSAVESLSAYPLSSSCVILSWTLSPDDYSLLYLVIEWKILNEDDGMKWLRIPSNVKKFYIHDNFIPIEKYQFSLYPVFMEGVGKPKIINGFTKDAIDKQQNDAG
Assay: SEC-MALLS

B1: murinized human Leptin G139L (ligand)
chain: not shown
Question: Does B1 bind?
Answer: binds

From paper doi:10.1101/2022.12.01.518327 (bioRxiv, 2022)
